Measured values: the RNAGym collection of RNA variant scans (doi:10.1093/nar/gkz1192)
Read counts are not given, so values of variants with three or more changes are uncertain.

B1: CPEB3 Ribozyme (parent)
chain: UAACAGGGGGCCACAGCAGAAGCGUUCACGUCGCAGCCCCUGUCAGAUUCUGGUGAAUCUGCGAAUUCUGCUGUAUAUCUC

Variants of: B1
Assay: self-cleavage, relative activity (ratio to wild type); higher = more cleavage; in vitro, sequencing
Method in brief: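 For each CPEB3 ribozyme variant, relative activity is its cleaved/total read fraction divided by the unmutated ribozyme's. Barcoded error-prone PCR libraries were transcribed by T7 RNA polymerase (5 hours, 37°C) and held in DNase I for 15 min before an EDTA stop, with cleavage occurring throughout. Template-switching reverse transcription and Illumina sequencing were used to read the RNAs. A 5-read minimum applied, and results are the mean of three batches.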

With UAACAGGGGGCCACAGCAGAAGCGUUCGCGAUGCAGCCCCUGUCAGGUUCUGGUGAAUCUGCGAAUUCUGCUGUAUAUCAC [A28G U31A C32U A47G U80A] as the variant, how does the self-cleavage read?
The self-cleavage was 0.24.

For UAACAGGGGGCCACAGCAGAAGCGUUCGCGACGCAGCCCCUGUCAGAUUCUUGUGAGUCUGCGAAUUCUGCUGUAUAUCUC [A28G U31A G52U A57G], which self-cleavage is on record?
Its self-cleavage is 0.28.

With UAACAGGGGGCCACAGCAGAAGCGUUCGCGACGCAGCCCCAGUCAGGUUCUGGUGGAUCUGCGAAUUCUGCUGUAUAACUC [A28G U31A U41A A47G A56G U78A] as the variant, how does the self-cleavage read?
Its self-cleavage is 0.08.

With UAACAGGGGGCCACAGCAGAAGCGUUCGCGACGCAGCCCCCGUCAGAUCCUGGUGAAUCUGCGAGUUCUGCUGUAUAUCAC [A28G U31A U41C U49C A65G U80A] as the variant, how does the self-cleavage read?
Its self-cleavage is 0.09.

Which self-cleavage does the source give for UAACAGGGGGCCACAGCAGAAGCGUUCGCGACGCAGCCCCUGCCAGAUUCUGGUGAAUCUGCGAAUUCUGCGGUACAUCUC [A28G U31A U43C U72G U76C] here?
Its self-cleavage is 0.11.

Which self-cleavage does the source give for UAACAGGGGGCCACAGCAGAAGCGUUCGCGACGCAGCCCCUGUCAGAUCCAGGUGAAUCUGCGAAUUCUGCUGUAUAUCUC [A28G U31A U49C U51A] here?
The self-cleavage was 0.07.

For UAACAGGGGGCCACAGCAGAAGCGUUCGCGACGCAGCCCCUGUCAGAUCCUGGUGAAUCUGCGAAUUCUGCUGUACAUCUC [A28G U31A U49C U76C], which self-cleavage is on record?
Its self-cleavage is 0.14.

With UAACAGGGGGCCACAGCAGAAGCGUUCGCGACGCAGCCCCUGUCAGAUUCUGGUGAAUCCGCGAAUUCUGCUGUAUAUCUC [A28G U31A U60C] as the variant, how does the self-cleavage read?
Its self-cleavage is 0.44.

For UAACAGGGGGCCACAGCAGAAGCGUUCGCGACGCAGCCCCUGUCAGAUUCUGGUGAAUCUGCGAAUCCAGCUGCAUACCUC [A28G U31A U67C U69A U74C U78C], which self-cleavage is on record?
The self-cleavage was 0.1.

For UAACAGGGGGCCACAGCAGAAGCGUUCGCGACGCAGCCCCUGUCAGAUUCUGGUGAAUCUGCGAAUUCAGCUGCAUAUCUC [A28G U31A U69A U74C], which self-cleavage is on record?
Its self-cleavage is 0.19.

With UAACAGGGGGCCACAGCAGAAGCGUUCGCGACGCAGCCCCUGUCAGAUUCUGGUGAAUCUGCGAAUUCUGCCGUAUAUCUC [A28G U31A U72C] as the variant, how does the self-cleavage read?
The self-cleavage was 0.37.

For UAACAGGGGGCCACAGCAGAAGCGUUCGCGACGCAGCCCCUGUCAGAUUCUGGUGAAUCUGCGAAUUCUGCUGCAUAUCUC [A28G U31A U74C], which self-cleavage is on record?
Its self-cleavage is 0.57.

Which self-cleavage does the source give for UAACAGGGGGCCACAGCAGAAGCGUUCGCGACGCAGCCCCUGUCAGAUUCUGGUGAAUCUGCGAAUUCUGCUGUAUAACUC [A28G U31A U78A] here?
The self-cleavage was 0.33.

With UAACAGGGGGCCACAGCAGAAGCGUUCGCGCCGCGGCCCCUGUCAGAUUCUGGUAGAUCAGCGAAUUCUGCUGUAUAUCUC [A28G U31C A35G G55A A56G U60A] as the variant, how does the self-cleavage read?
The self-cleavage was 0.17.

Which self-cleavage does the source give for UAACAGGGGGCCACAGCAGAAGCGUUCGCGCCGCGGCCCCUGUCAGAUUCUGGAGAAUCUGCGAAUUCAGCUGUAUAUCUC [A28G U31C A35G U54A U69A] here?
The self-cleavage was 0.41.

Which self-cleavage does the source give for UAACAGGGGGCCACAGCAGAAGCGUUCGCGCCGCUGCCCCUGUCAGAUUCUGGUGAAUCUGCGAAUUCUGCUGUAUAUCUC [A28G U31C A35U] here?
The self-cleavage was 0.16.

For UAACAGGGGGCCACAGCAGAAGCGUUCGCGCCGCAGCCCCUGUCGGAUUCUGGUGAAUCUGCGAAUUCUGCUGUAUAUCUC [A28G U31C A45G], which self-cleavage is on record?
The self-cleavage was 0.26.

For UAACAGGGGGCCACAGCAGAAGCGUUCGCGCCGCAGCCCCUGUCUGAUUCUGGUGAAUCUGCGAAAUCUGCUGUAUAUCUC [A28G U31C A45U U66A], which self-cleavage is on record?
Its self-cleavage is 0.04.

For UAACAGGGGGCCACAGCAGAAGCGUUCGCGCCGCAGCCCCUGUCAGAUUCUGGUGGAUCUGCGAAUUCUGCUGUAUAUCUC [A28G U31C A56G], which self-cleavage is on record?
The self-cleavage was 0.23.

With UAACAGGGGGCCACAGCAGAAGCGUUCGCGCCGCAGCCCCUGUCAGAUUCUGGUGAAUCUGCGGAAUCUGCUGUAUAUCUC [A28G U31C A64G U66A] as the variant, how does the self-cleavage read?
The self-cleavage was 0.11.

For UAACAGGGGGCCACAGCAGAAGCGUUCGCGCGGCAGCCCCUGCCAGAUUCUGGUGAAUCUGCGAAUUCUGCUGUAUACCAC [A28G U31C C32G U43C U78C U80A], which self-cleavage is on record?
Its self-cleavage is 0.19.

Which self-cleavage does the source give for UAACAGGGGGCCACAGCAGAAGCGUUCGCGCCGCAGACCCUGUCAGAUUCUGGUGGAUCUGCGAAUUCUGCUGUAUAUCUC [A28G U31C C37A A56G] here?
The self-cleavage was 0.1.

For UAACAGGGGGCCACAGCAGAAGCGUUCGCGCCGCAGUCCCUGUCAGACUCUUGUGAAUCUGCGAAUCCUGCUGUAUAUCUC [A28G U31C C37U U48C G52U U67C], which self-cleavage is on record?
Its self-cleavage is 0.1.

With UAACAGGGGGCCACAGCAGAAGCGUUCGCGCCUCAGCCCCUGUCAGAUUCUGGUGAGUCUGCGGAUACUGCUGUAUAUCUC [A28G U31C G33U A57G A64G U67A] as the variant, how does the self-cleavage read?
Its self-cleavage is 0.17.

For UAACAGGGGGCCACAGCAGAAGCGUUCGCGCCGCAACCCCUGUCAGAUUCCGGUGAAUCUGCGAAUUCUGCUGUAUAUCUC [A28G U31C G36A U51C], which self-cleavage is on record?
Its self-cleavage is 0.16.

For UAACAGGGGGCCACAGCAGAAGCGUUCGCGCCGCAUCCCCUGUCAGAUUCUGGUGGAUCUGCGCACUCUGCUGUAUAUCAC [A28G U31C G36U A56G A64C U66C U80A], which self-cleavage is on record?
Its self-cleavage is 0.06.

Which self-cleavage does the source give for UAACAGGGGGCCACAGCAGAAGCGUUCGCGCCGCAGCCCCUGUCAAAUUCUGGUGAAUCUGCGAAUUCUGCUGUAUAUCUC [A28G U31C G46A] here?
Its self-cleavage is 0.11.

For UAACAGGGGGCCACAGCAGAAGCGUUCGCGCCGCAGCCCCAGUCAGAUUCCGGUGAAUCUGCGAAUUCUGCCGUAUAUCCC [A28G U31C U41A U51C U72C U80C], which self-cleavage is on record?
Its self-cleavage is 0.25.

For UAACAGGGGGCCACAGCAGAAGCGUUCGCGCCGCAGCCCCUGCUAGGUUCUGGUGAAUCUGCGAACUCUGCUGUAUAUCUC [A28G U31C U43C C44U A47G U66C], which self-cleavage is on record?
The self-cleavage was 0.15.

Which self-cleavage does the source give for UAACAGGGGGCCACAGCAGAAGCGUUCGCGCCGCAGCCCCUGUCAGACUCUGGCGAAUCUGCGAAUUCUGCUGUAUAUCUC [A28G U31C U48C U54C] here?
Its self-cleavage is 0.11.

Which self-cleavage does the source give for UAACAGGGGGCCACAGCAGAAGCGUUCGCGCCGCAGCCCCUGUCAGACUCUGGUGAAUCAGCGAAUCCCGCUGUAUAUCUC [A28G U31C U48C U60A U67C U69C] here?
Its self-cleavage is 0.12.

For UAACAGGGGGCCACAGCAGAAGCGUUCGCGCCGCAGCCCCUGUCAGAUUCAGGUGAAUCUGCGAAUUCUGCUGUAUAUCUC [A28G U31C U51A], which self-cleavage is on record?
Its self-cleavage is 0.54.

For UAACAGGGGGCCACAGCAGAAGCGUUCGCGCCGCAGCCCCUGUCAGAUUCUGGUGAACCUGCGAAUUCUUCCGUAUAUCUC [A28G U31C U58C G70U U72C], which self-cleavage is on record?
The self-cleavage was 0.08.

With UAACAGGGGGCCACAGCAGAAGCGUUCGCGCCGCAGCCCCUGUCAGAUUCUGGUGAAUCAGCGAAUUCUGCUGUAUAUCUC [A28G U31C U60A] as the variant, how does the self-cleavage read?
The self-cleavage was 0.15.
